Measured values reported in PubChem BioAssay AID624417 (National Center for Advancing Translational Sciences (NCATS), 2012).
The campaign covered roughly 410,000 compounds. About 6,400 (1.6%) were called active. This list was built around the results that the source calls inconclusive (neither active nor inactive); the mix of calls is not that of the screen. The call rests on the fitted dose curve; in most records, active means well fitted inhibition curve with a large enough effect; inconclusive means small, poorly fitted or top-dose-only effect; inactive means no such curve, though single readings can be large or run the other way. Potencies of inconclusive entries are left out as doubtful fits.
Further: nearly all actives have a fitted effect of over 55% in size.
Potency means the concentration at half of the fitted maximal effect; tags describe the fitted curve by direction and shape.

These compounds were tested against Glucagon-like peptide 1 receptor (Homo sapiens) (UniProt P43220) (assay: qHTS of GLP-1 Receptor Inverse Agonists (Inhibition Mode)). Details: HEK293 GLP-1R CRE-luciferase, luminescence, 24 h, GLP-1R form is constitutively active; series mostly up to 38.3 µM.
Chain of UniProt P43220 (P43220 whole entry, looked up): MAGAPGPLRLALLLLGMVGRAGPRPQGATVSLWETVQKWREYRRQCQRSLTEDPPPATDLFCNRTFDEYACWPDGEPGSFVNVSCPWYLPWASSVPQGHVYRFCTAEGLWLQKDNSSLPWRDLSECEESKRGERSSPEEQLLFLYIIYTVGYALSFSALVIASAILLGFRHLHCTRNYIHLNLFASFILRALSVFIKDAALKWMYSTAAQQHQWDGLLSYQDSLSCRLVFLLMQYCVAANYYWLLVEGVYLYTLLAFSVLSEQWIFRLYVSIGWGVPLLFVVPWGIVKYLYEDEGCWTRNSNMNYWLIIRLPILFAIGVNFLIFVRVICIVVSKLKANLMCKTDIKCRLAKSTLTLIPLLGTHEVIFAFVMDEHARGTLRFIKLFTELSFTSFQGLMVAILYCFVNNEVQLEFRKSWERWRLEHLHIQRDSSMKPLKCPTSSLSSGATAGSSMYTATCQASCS
How it was run: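 GLP-1R inverse agonism mode: basal reporter luminescence in engineered HEK293 cells measured after one day of compound exposure at 37 deg C, with a 12 min room-temperature detection step.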
In the case of `COc1cccc(CNC(=O)Cn2c(=O)oc3cc(S(=O)(=O)N4CCC(C)CC4)ccc32)c1`, the Potency is reported as inconclusive [inhibitor, partial curve]. For `CN(C)CCCNc1nc(-c2ccccc2)nc2ccccc12`, the Potency was inconclusive [inhibitor, single point]. In the case of `Cc1ccc(S(C)(=O)=O)cc1C(=O)OCC(=O)N(Cc1ccccc1)Cc1ccccc1`, the Potency is reported as inconclusive [inhibitor, single point]. In the case of `Cc1ccc(NC(=O)CCc2ccc(S(=O)(=O)NC3CCCCC3)cc2)cc1`, the Potency is reported as inconclusive [inhibitor, partial curve, poor fit]. With `O=C(Cn1c(=O)n(-c2ccc(F)cc2)c(=O)c2sccc21)Nc1cccc(C(F)(F)F)c1` the Potency was inconclusive [inhibitor, single point]. For `Cc1cc(C)cc(OCC(=O)Nc2cccc(-c3nc4ccccc4[nH]3)c2)c1`, the Potency was inconclusive [inhibitor, single point]. With `CCOc1ccc(Nc2ccc([N+](=O)[O-])c3nonc23)cc1` the Potency was “inactive”. In the case of `O=C(NC1CCN(Cc2ccccc2)CC1)c1ccc2c(c1)[nH]c(=O)n2Cc1ccc(F)cc1`, the Potency is reported as inconclusive [inhibitor, partial curve, poor fit]. In the case of `Cc1ccc(NC(=O)C2CCCN(c3nnc(C)c4c(C)n(-c5ccccc5)nc34)C2)cc1Cl` (stereo not drawn), the Potency is reported as “inactive”. In the case of `O=C(CSc1nccn1-c1ccccc1)N1CCc2ccccc21`, the Potency is reported as inconclusive [inhibitor, partial curve, poor fit]. In the case of `Nc1nc2ccccc2n1C(=O)c1ccc(F)cc1`, the Potency is reported as inconclusive [inhibitor, single point]. With `CC(=O)c1ccc(NC(=O)C2CCCN(S(=O)(=O)c3cn(C)cn3)C2)cc1` (stereo not drawn) the Potency was “inactive”. `Cc1ccc(N(Cc2ccco2)C(=O)c2ccc(N3CCCCC3)c([N+](=O)[O-])c2)cc1` was tested, and the Potency was inconclusive [inhibitor, full curve, poor fit]. In the case of `CCOC(=O)C(=NCCCN1CCOCC1)NNc1cccc(C(F)(F)F)c1`, the Potency is reported as inconclusive [inhibitor, partial curve]. `CCOC(=O)c1sc2nc3c(SCC(=O)O)cc(C(=O)c4cc(F)ccc4O)cn3c(=O)c2c1C` was tested, and the Potency was inconclusive [inhibitor, partial curve, poor fit]. In the case of `CC1CCCN(c2sc(S(C)(=O)=O)nc2S(=O)(=O)c2ccc(Cl)cc2)C1` (stereo not drawn), the Potency is reported as inconclusive [inhibitor, partial curve]. For `Clc1c(CSc2nc3ccccc3o2)nc2ccccn12`, the Potency was inconclusive [inhibitor, single point]. With `COc1ccc(CCC(C)N2CCc3ccccc3C2)cc1` (stereo not drawn) the Potency was inconclusive [inhibitor, partial curve, poor fit]. In the case of `O=C(Nc1ccccc1C(F)(F)F)c1noc2c1CCCCC2`, the Potency is reported as inconclusive [inhibitor, single point]. In the case of `COc1ccc(-c2ccc(SCC(=O)N3CC(=O)Nc4ccccc43)nn2)cc1`, the Potency is reported as inconclusive [inhibitor, single point]. With `CC(C)c1ccc(/C=C2\SC(=S)N(CCC(=O)N3CCCCC3CCO)C2=O)cc1` (stereo not drawn) the Potency was inconclusive [inhibitor, partial curve, poor fit]. In the case of `CCC(C(=O)N1CCCCCC1)n1nc(C)n2c(cc3occc32)c1=O` (stereo not drawn), the Potency is reported as “inactive”. For `CC(O)(c1cccc(F)c1)c1nc(-c2cc(F)cc(F)c2)cs1` (stereo not drawn), the Potency was inconclusive [inhibitor, single point]. In the case of `N#Cc1cnn2c(-c3ccccc3)ccnc12`, the Potency is reported as “inactive”. In the case of `CCC(=O)Nc1ccc(C(=O)OCc2ccccc2)cc1`, the Potency is reported as inconclusive [inhibitor, single point]. With `COc1cccc(C(=O)Nc2ccc(N3CCN(C(=O)c4ccco4)CC3)cc2)c1` the Potency was inconclusive [inhibitor, partial curve, poor fit]. For `COc1ccc(C(CNC(=O)c2cccc(S(=O)(=O)Nc3ccccc3Cl)c2)N2CCOCC2)cc1` (stereo not drawn), the Potency was inconclusive [inhibitor, single point]. For `C#Cc1ccc(NC(=O)C2(C)CCN2C(=O)c2ccccc2CCc2ccccc2)cc1` (stereo not drawn), the Potency was inconclusive [inhibitor, partial curve, poor fit]. In the case of `CCOc1ncccc1C(=O)NCCc1c[nH]c2ccccc12`, the Potency is reported as inconclusive [inhibitor, single point]. `Cc1ccc(-c2ccc(CN3C(C)C(=O)N(Cc4cn(CC5CCCCC5)nn4)CCS3(=O)=O)cc2)cc1` (stereo not drawn) was tested, and the Potency was inconclusive [inhibitor, single point]. In the case of `O=C(c1ccc2c(=O)n(Cc3ccc(Cl)cc3)c(=S)[nH]c2c1)N1CCOCC1`, the Potency is reported as inconclusive [inhibitor, partial curve, poor fit]. `CCCCOCCCNC(=S)Nc1ccc(S(=O)(=O)N2CCOCC2)cc1` was tested, and the Potency was inconclusive [inhibitor, partial curve, poor fit]. `CCOc1ccc(NC(=S)N2CCCN(Cc3cccc(Cl)c3)C2)cc1` was tested, and the Potency was inconclusive [inhibitor, partial curve, poor fit]. For `COc1cc(O)c(C(=O)/C=C/c2ccccc2)c(OC)c1`, the Potency was inconclusive [inhibitor, single point]. In the case of `Cc1ccccc1-c1nc(CS(=O)(=O)CC(=O)NCCN2CCCC2)c(C)o1`, the Potency is reported as inconclusive [inhibitor, single point]. In the case of `O=c1oc(C2(O)CCCCC2)cc2ccc(-c3ccc4[nH]ccc4c3)cc12`, the Potency is reported as inconclusive [inhibitor, full curve, poor fit]. In the case of `CC1(C(=O)NS(=O)(=O)c2ccccc2Cl)CCN1C(=O)C1(c2ccc(Cl)cc2)CCC1` (stereo not drawn), the Potency is reported as inconclusive [inhibitor, partial curve, poor fit]. With `CCOC(=O)C1(CC2CC2)CCN(Cc2cn[nH]c2-c2cccc(F)c2)CC1` the Potency was inconclusive [inhibitor, single point].
